From publication PMC3339955
No constants are given. Whether binding was seen depends on the method and setting. Binding seen in cells or lysates may run through a third protein. Some binding calls cover weakened binding; strength is not graded here. Values belong to the substance of their own block, whether it stands above or below them.

Protein sequences, listed by entry. Tags and fused reporters are not part of them. Lines headed by an entry give the natural chain unless they say otherwise; changes in a name come on top. Chains listed by the source or under a name are the forms on record and can include a tag or linker. Residues count along the entry.
UniProt P45973: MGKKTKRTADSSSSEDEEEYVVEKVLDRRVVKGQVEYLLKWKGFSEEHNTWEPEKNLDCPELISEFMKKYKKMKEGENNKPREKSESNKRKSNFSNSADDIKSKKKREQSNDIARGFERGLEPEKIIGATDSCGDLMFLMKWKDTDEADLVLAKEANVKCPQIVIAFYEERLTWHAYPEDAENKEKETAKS
UniProt P83916: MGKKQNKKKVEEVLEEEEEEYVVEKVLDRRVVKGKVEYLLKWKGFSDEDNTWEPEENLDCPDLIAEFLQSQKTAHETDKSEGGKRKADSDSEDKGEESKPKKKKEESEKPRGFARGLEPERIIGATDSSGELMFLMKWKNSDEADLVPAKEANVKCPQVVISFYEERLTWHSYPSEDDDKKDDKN
UniProt Q13185: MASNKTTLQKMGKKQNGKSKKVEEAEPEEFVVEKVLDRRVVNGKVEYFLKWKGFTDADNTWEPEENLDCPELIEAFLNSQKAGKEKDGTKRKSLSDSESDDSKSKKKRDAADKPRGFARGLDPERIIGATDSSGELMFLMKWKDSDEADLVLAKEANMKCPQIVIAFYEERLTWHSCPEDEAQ
UniProt O14901: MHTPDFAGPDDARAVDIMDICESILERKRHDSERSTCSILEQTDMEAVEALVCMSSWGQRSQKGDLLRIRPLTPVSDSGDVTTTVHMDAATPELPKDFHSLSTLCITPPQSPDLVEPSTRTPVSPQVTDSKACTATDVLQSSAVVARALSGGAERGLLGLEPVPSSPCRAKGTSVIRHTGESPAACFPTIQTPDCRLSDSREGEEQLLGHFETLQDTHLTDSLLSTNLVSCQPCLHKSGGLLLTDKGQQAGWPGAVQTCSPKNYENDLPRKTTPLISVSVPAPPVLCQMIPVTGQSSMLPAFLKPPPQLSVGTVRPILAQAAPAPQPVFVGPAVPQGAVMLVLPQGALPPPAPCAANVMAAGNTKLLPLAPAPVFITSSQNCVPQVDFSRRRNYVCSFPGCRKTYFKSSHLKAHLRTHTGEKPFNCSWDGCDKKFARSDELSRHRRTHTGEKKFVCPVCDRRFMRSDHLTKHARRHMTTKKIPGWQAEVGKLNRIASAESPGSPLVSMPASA
His-tagged KLF11 wild type: residues 18-512 of O14901
His-tagged KLF11ΔHP1: residues 19-503 of O14901
KLF11 (42–495), in vitro translated: residues 59-512 of O14901
KLF11 (162–495), in vitro translated: residues 179-512 of O14901
KLF11 (379–495), in vitro translated: residues 396-512 of O14901
UniProt Q09472: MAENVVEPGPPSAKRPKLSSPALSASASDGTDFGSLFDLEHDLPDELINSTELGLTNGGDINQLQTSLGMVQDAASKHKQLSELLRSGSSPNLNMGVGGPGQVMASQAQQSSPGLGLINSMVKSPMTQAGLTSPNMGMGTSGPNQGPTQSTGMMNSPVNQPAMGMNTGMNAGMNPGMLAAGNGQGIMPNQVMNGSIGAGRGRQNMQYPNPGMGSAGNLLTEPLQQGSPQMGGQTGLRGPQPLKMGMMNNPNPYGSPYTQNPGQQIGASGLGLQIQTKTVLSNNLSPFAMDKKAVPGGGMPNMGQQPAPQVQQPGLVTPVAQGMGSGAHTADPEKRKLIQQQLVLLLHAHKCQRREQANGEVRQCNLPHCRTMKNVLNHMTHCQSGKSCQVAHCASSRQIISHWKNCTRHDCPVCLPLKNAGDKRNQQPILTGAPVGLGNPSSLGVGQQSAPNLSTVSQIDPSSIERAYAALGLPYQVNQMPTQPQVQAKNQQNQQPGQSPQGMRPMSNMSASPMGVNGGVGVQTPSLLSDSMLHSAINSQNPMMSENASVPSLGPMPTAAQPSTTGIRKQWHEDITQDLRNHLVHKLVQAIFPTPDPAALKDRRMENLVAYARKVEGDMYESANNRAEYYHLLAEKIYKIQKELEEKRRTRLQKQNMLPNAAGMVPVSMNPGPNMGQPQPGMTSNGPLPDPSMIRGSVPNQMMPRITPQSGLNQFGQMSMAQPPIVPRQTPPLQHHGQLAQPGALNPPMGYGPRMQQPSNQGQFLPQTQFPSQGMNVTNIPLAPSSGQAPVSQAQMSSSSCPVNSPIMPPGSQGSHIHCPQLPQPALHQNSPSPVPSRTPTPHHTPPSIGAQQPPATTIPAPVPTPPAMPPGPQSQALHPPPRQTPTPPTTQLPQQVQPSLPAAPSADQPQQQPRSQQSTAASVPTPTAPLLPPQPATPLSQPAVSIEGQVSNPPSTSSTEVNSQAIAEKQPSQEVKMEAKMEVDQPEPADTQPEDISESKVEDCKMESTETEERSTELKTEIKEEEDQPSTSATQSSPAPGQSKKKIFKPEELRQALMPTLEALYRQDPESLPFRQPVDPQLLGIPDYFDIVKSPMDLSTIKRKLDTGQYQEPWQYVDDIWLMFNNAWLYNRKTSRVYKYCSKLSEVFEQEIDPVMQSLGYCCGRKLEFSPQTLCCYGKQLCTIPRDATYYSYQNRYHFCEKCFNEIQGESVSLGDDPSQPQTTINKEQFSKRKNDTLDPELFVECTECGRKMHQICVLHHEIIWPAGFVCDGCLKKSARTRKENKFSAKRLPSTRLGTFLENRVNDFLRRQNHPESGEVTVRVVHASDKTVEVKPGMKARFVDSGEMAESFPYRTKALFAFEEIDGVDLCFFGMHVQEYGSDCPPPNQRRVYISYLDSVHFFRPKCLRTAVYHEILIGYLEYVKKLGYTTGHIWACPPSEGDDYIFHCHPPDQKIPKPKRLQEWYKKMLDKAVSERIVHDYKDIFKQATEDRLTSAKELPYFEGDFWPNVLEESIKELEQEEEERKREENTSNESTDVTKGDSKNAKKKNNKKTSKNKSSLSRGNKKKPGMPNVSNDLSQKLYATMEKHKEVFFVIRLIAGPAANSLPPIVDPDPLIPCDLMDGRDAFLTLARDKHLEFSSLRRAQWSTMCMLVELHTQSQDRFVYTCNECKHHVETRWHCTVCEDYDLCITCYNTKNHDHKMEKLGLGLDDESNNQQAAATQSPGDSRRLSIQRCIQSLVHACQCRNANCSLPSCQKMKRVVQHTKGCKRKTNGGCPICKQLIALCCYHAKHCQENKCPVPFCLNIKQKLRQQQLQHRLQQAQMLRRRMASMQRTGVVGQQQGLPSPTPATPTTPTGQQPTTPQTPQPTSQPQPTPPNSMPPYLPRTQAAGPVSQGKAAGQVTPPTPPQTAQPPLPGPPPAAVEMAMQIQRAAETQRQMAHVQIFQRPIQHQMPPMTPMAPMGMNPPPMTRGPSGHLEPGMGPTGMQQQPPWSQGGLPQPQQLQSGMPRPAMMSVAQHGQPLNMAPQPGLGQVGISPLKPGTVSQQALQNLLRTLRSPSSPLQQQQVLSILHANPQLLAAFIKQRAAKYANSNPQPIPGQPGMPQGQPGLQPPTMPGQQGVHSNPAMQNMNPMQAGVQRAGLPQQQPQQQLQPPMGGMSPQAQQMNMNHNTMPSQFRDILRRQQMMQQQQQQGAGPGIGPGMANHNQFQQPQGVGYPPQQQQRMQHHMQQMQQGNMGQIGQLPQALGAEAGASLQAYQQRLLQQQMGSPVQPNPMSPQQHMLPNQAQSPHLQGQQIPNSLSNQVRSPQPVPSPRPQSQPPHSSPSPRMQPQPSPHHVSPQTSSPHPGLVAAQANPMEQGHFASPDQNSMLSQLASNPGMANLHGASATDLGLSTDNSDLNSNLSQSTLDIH

Assays:
[1] = target: Endogenous HP1α (human (endogenous in BxPC3, Panc1, PL45)) (UniProt P45973); test: co-IP; endogenous HP1α immunoprecipitation from nuclear lysates of Panc1 and PL45 cells; data not shown
[2] = target: Endogenous HP1α (human (endogenous in BxPC3, Panc1, PL45)) (UniProt P45973); test: co-IP; immunoprecipitation with an HP1α-specific antibody from BxPC3 nuclear extracts, Western blot with a KLF11-specific antibody; mouse IgG as negative control; both proteins endogenous
[3] = target: GST-HP1α (heterochromatin protein 1 alpha) (human) (UniProt P45973); test: pull-down; GST pulldown: purified GST-HP1 fusion proteins as bait, 35S-labelled in vitro translated KLF11 proteins as prey; phosphorimage read-out; GST alone as negative control; only the target purified
[4] = target: EYFP(2)-HP1α (C-terminal EYFP portion fused to HP1α) (human) (UniProt P45973); test: split reporter; BiFC: cells co-transfected with EYFP(1) and EYFP(2) expression vectors, confocal microscopy after 48 h
[5] = target: GST-HP1β (heterochromatin protein 1 beta) (human) (UniProt P83916); test: pull-down; GST pulldown: purified GST-HP1 fusion proteins as bait, 35S-labelled in vitro translated KLF11 proteins as prey; phosphorimage read-out; GST alone as negative control; only the target purified
[6] = target: GST-HP1γ (heterochromatin protein 1 gamma) (human) (UniProt Q13185); test: as above
[7] = target: His-tagged KLF11ΔHP1 (human) (UniProt O14901); test: co-IP; immunoprecipitation of the His-tagged KLF11ΔHP1 deletion mutant, blots for Sin3a and p300
[8] = target: HP1α in cells transfected with His-tagged KLF11 (UniProt P45973); test: co-IP; immunoprecipitation with an HP1α-specific antibody from cells transfected with His-tagged KLF11 WT or KLF11ΔHP1; empty vector as negative control

Substance: KLF11 (42–495), in vitro translated (from UniProt O14901-2 42-495) (domain or fragment)
- binding [3]: binds

Substance: EYFP(1)-KLF11 (N-terminal EYFP portion fused to KLF11) (from UniProt O14901-2 1-495)
- binding [4]: binds

Substance: Krüppel-like factor 11 (KLF11), 35S-labelled, in vitro translated (from UniProt O14901-2 1-495)
- binding [3]: binds
- binding [5]: binds
- binding [6]: binds

Substance: His-tagged KLF11 wild type (from UniProt O14901-2 1-495)
- binding [8]: binds

Substance: KLF11 (162–495), in vitro translated (from UniProt O14901-2 162-495) (domain or fragment)
- binding [3]: binds

Substance: KLF11 (379–495), in vitro translated (from UniProt O14901-2 379-495) (domain or fragment)
- binding [3]: binds

More lines, now with the values ahead:

- binding [1]: binds
- binding [2]: binds
Substance: Endogenous KLF11 (from UniProt O14901 1-512)

- binding [7]: binds
Substance: p300 (from UniProt Q09472 1-2414)

- binding [3]: no binding
Substance: KLF11 (amino acids 2–486) mutant, KLF11ΔHP1, in vitro translated (from UniProt O14901-2 2-486) (domain or fragment)

- binding [8]: no binding
Substance: His-tagged KLF11ΔHP1 (from UniProt O14901-2 2-486) (domain or fragment)
